# Reference: PubChem BioAssay AID1347120 (National Center for Advancing Translational Sciences (NCATS), 2019)
# About 930 (0.24%) of roughly 390,000 compounds were called active. The shares of active, inactive and inconclusive entries below differ from those in the screen. The call rests on the fitted dose curve; in most records, active means well fitted activation curve with a large enough effect; inconclusive means small, poorly fitted or top-dose-only effect; inactive means no such curve, though single readings can be large or run the other way. Potencies of inconclusive entries are doubtful fits and often do not repeat.
# Assay: qHTS for Suppressors of FUS Proteinopathy: Primary screen using FUS-linked yeast assay; further: nearly all actives have a fitted effect of over 55% in size;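 on growth rescue (activation): plate controls were DMSO vehicle for no effect and reference control for full effect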
# Conditions: S. cerevisiae FUS-expressing, OD600, 24 h; Potency: growth rescue; growth rescue (activation): at 76.6 µM (top of the series)
# Procedure, shortened: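 Yeast expressing FUS under galactose induction, OD 0.005 in 2% galactose medium; compounds in a dilution series, 24 h at 30C. Growth rescue by absorbance at 600 nm; CP55940 positive control, DMSO negative.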
# Potency means the concentration at half of the fitted maximal effect; tags describe the fitted curve by direction and shape.
Structure (SMILES),Potency,growth rescue (activation)
O=C(Cc1csc(-c2ccc(Cl)cc2)n1)Nc1cccc(S(=O)(=O)NC2=NCCC2)c1,"inconclusive: 35.5 µM [activator, single point]",–
COc1ccccc1-c1ncn(Cc2cccc(-c3ccccc3)c2)c1CC(C)C,"inconclusive: 11.2 µM [activator, partial curve]",–
COc1cccc(C2C(C#N)=C(N)Oc3cc(N)ccc32)c1OC (configuration not stated),"inconclusive: 35.5 µM [activator, single point]",–
Cc1nnc(-c2cccc(Br)c2)c2cn(-c3ccccc3Cl)nc12,inactive,–
c1ccc(CN2CCN(c3nc(-c4ccccn4)nc4ccccc34)CC2)cc1,inactive,–
S=C(NCCCCN(Cc1ccc(Cl)cc1)c1ccc(Br)cn1)NCCCc1cnc[nH]1,"inconclusive: 50.1 µM [activator, single point]",–
Cc1ccc(NC(=S)Nc2cccc(-c3n[nH]c(=S)o3)c2)cc1,"inconclusive: 31.6 µM [activator, single point]",–
CCN(CC)C(=O)C1CCCN(c2ncnc3c2cnn3-c2ccc(Cl)cc2)C1 (configuration not stated),"inconclusive: 50.1 µM [activator, single point]",–
CCOc1ccc(Cl)cc1-c1cc(C(=O)NCc2ccccc2OC)[nH]n1,"inconclusive: 44.7 µM [activator, single point]",–
COc1ccc2c(c1)CCc1c(C(=O)Nc3c(C)nn(Cc4ccc(C)cc4)c3C)noc1-2,"inconclusive: 28.2 µM [activator, partial curve, poor fit]",–
Cc1cccc(N(C)C(=O)c2cc(S(=O)(=O)N3CCc4ccccc43)cn2C)c1,"inconclusive: 31.6 µM [activator, single point]",–
CC1(OC(=O)CCc2ccccc2)C(=O)C=C2C=C(c3ccc(C#N)cc3)N(CCc3c[nH]c4ccccc34)C=C2C1=O (configuration not stated),"inconclusive: 31.6 µM [activator, single point]",–
C(=N\Nc1nc2ccccc2[nH]1)/c1ccccc1,inactive,–
CC(C)COc1ccc(-c2csc(N3CCC(C(N)=O)CC3)n2)cc1,"inconclusive: 10 µM [activator, full curve, poor fit]",–
COc1ccc(-c2cc3nc(-c4ccccc4)cc(N4CCN(C(C)=O)CC4)n3n2)cc1,"inconclusive: 15.8 µM [activator, partial curve, poor fit]",–
CC1=C(Sc2ccccn2)C(=O)NC(C)(C)C1,–,inconclusive: 63.1% [activator]
CCn1cc(C(=O)NCc2ccccc2)c(=O)c2cc(S(=O)(=O)N3CCCCCC3)ccc21,inactive,–
O=C(C1CCN(S(=O)(=O)c2ccccc2)CC1)N1CCN(c2ccccc2F)CC1,"inconclusive: 3.16 µM [activator, full curve]",–
COc1ccc(/C(N)=N/OC(=O)Cc2cccs2)cc1,inactive,–
CCOC(=O)c1c(N)sc(C(=O)N2CCCC2)c1C,"inconclusive: 6.31 µM [activator, single point]",–
CCn1c(COc2ccccc2C)nnc1SCC(=O)CC(=O)Nc1ccccc1OC,"inconclusive: 39.8 µM [activator, partial curve, poor fit]",–

Structure (SMILES),Potency,growth rescue (activation)
COC(=O)[C@]12C[C@H](CC(=O)NCC34CC5CC(CC(C5)C3)C4)C(=O)N(Cc3ccco3)C1=C[C@H](C(C)C)O[C@@H]2C1CC1,active: 25.1 µM,–
CCCCN1CC(c2nc3ccccc3n2CCCCOc2cccc(C)c2C)CC1=O (configuration not stated),"inconclusive: 25.1 µM [activator, single point]",–
NC(=O)COC(=O)c1oc2ccccc2c1CSc1ccc(Cl)cc1,"inconclusive: 31.6 µM [activator, single point]",–
O=C(/C(=C/c1ccc(Cl)cc1)c1nc2ccccc2[nH]1)c1cccs1,inactive,–
CCN(CC)S(=O)(=O)c1ccc(N2CCOCC2)c(NC(=S)NC(=O)c2ccco2)c1,"inconclusive: 50.1 µM [activator, single point]",–
COc1ccc(NCC(=O)Nc2ccc(Cl)cc2C)c(OC)c1,"inconclusive: 50.1 µM [activator, single point]",–
O=C(OCc1cnc(Cl)s1)c1c(F)cccc1F,"inconclusive: 6.31 µM [activator, full curve]",–
COc1ccc(-c2csc(C(O)c3ccc(F)c(OC)c3)n2)cc1 (configuration not stated),"inconclusive: 50.1 µM [activator, partial curve, poor fit]",–
COC(=O)[C@@]12C[C@@H](CC(=O)NCc3ccc(C)o3)C(=O)N(CCc3ccc(OC)c(OC)c3)C1=CCC(C)(C)C2,"inconclusive: 50.1 µM [activator, single point]",–
Cc1nn(-c2ccccc2)c(C)c1/C=N/n1cnnc1,inactive,–
CC(Oc1ccc2c(-c3ccccc3)cc(=O)oc2c1)C(=O)NCC(O)c1ccccc1 (configuration not stated),"inconclusive: 25.1 µM [activator, partial curve]",–
Cc1nnc(SCC(=O)NCc2ccc3c(c2)OCO3)s1,inactive,–
CCN(CC)C(=O)CSc1nnc(-c2ccc(C(C)(C)C)cc2)n1-c1ccc(Cl)cc1,"inconclusive: 25.1 µM [activator, partial curve, poor fit]",–
O=C(Nc1ccc(F)cc1)OCc1cn(Cc2cccc(F)c2F)nn1,inactive,–
COc1ccc(CCNC(=O)C(C)n2c(=O)cc(-c3ccccc3)c3c(C)nn(C)c32)cc1OC (configuration not stated),inactive,–
COc1cc(C(=O)NCCc2cc3c(OC)ccc(OC)c3[nH]c2=O)cc(OC)c1OC,"inconclusive: 25.1 µM [activator, partial curve, poor fit]",–
COc1ccc(C2=Nc3ccccc3N(C(=O)Cc3cc(OC)cc(OC)c3)C2C(=O)NC(C)C)cc1 (configuration not stated),"inconclusive: 14.1 µM [activator, partial curve]",–
C=CC[C@@H](CC(=O)N[C@@H](CO)Cc1ccccc1)C(=O)N[C@H](COC(=O)[C@@H](CC=C)Cc1ccc(F)cc1)C(C)(C)C,"inconclusive: 28.2 µM [activator, single point]",–
CCOc1ccc(N(CC(=O)NC2CCCCC2)C(=O)CCCC(=O)Nc2ccccn2)cc1,"inconclusive: 20 µM [activator, partial curve, poor fit]",–
COc1ccccc1NC(=S)NC(=O)c1ccc(Cn2cc(Br)cn2)cc1,"inconclusive: 3.16 µM [activator, full curve, poor fit]",–
CCC[C@H](/C=C/C(=O)OC(C)(C)C)Sc1ccc(OC)cc1,inactive,–

Structure (SMILES),Potency,growth rescue (activation)
CCOC(=O)c1ccc(NC(=O)C2=C(C)Nc3nc(CCCO)nn3C2c2ccc(OC)cc2)cc1 (configuration not stated),"inconclusive: 35.5 µM [activator, single point]",–
CCOC(=O)c1cnn(-c2ccccc2)c1-n1cccc1C(=O)C(=O)Nc1ccc(F)cc1,"inconclusive: 28.2 µM [activator, single point]",–
COC(=O)[C@]12C[C@H](CC(=O)NCCCN3CCCC3=O)C(=O)N(Cc3cccc4ccccc34)C1=C[C@H](C(C)(C)C)O[C@@H]2C,"inconclusive: 20 µM [activator, single point]",–
O=C(c1ccc(F)cc1Cl)N(Cc1ccccn1)CC1CCCO1 (configuration not stated),inactive,–
COc1ccccc1-c1sc2cc3c(cc2c1C#CC1(O)CCCCC1)OCO3,inactive,–
CSc1nc2ccc(NC(=O)C3CC(=O)N(Cc4ccccc4)C3)cc2s1 (configuration not stated),"inconclusive: 50.1 µM [activator, single point]",–
CC(C)Oc1ccc(S(=O)(=O)N2CCOCC2)cc1NC(=O)Cc1ccsc1,inactive,–
CCc1c(O)nc(SCC(=O)Nc2ccc(C)cc2)n(C2CCCCC2)c1=O,"inconclusive: 50.1 µM [activator, single point]",–
CS(=O)(=O)N1CCN(c2ccc(NC(=O)c3cc4ccccc4o3)cc2)CC1,inactive,–
Cc1sc(-n2c(C)ccc2C)c(C#N)c1C,"inconclusive: 50.1 µM [activator, single point]",–
Cc1ccc(NC(=O)CSc2nc(O)cc(=O)n2C)cc1,"inconclusive: 10 µM [activator, full curve, poor fit]",–
C=C1CCN([C@@H](Cc2ccccc2)C(=O)NCCCc2ccccc2)S(=O)(=O)c2ccccc21,"inconclusive: 25.1 µM [activator, single point]",–
CC(=O)c1ccc(N2C(=O)C3C(C2=O)C(C(=O)c2ccc(Cl)cc2)N2CCCC32)cc1 (configuration not stated),"inconclusive: 31.6 µM [activator, single point]",–
CC(C)(C)c1cc(C(=O)NNc2cccc(Cl)c2)n(Cc2ccccc2)n1,"inconclusive: 35.5 µM [activator, partial curve, poor fit]",–
Cc1cccc(N2CCN(C(=O)CS(=O)(=O)Cc3nc(-c4ccccc4C)oc3C)CC2C)c1 (configuration not stated),"inconclusive: 17.8 µM [activator, partial curve, poor fit]",–
CC1(C)Cc2c(c(N3CCOCC3)nc3sc4c(NCc5ccco5)nnnc4c23)CS1,"inconclusive: 31.6 µM [activator, single point]",–
O=C(O)[C@H]1CCCN1C(=O)c1ccccc1N1C(=O)[C@@H]2Cc3c([nH]c4ccccc34)C(c3cccc(Cl)c3)N2C1=O (some centres not stated),inactive,–
CC(C)(C)C(=O)C1=C(O)C(=O)N(Cc2ccccc2)C1c1ccccc1Cl (configuration not stated),inactive,–
COC(=O)[C@H](NC(=O)c1cc([C@@H](NC(=O)OC(C)(C)C)C(C)C)sc1N)C(C)C,"inconclusive: 8.91 µM [activator, full curve]",–
COc1ccc(Nc2sc(C(=O)c3ccc(Cl)cc3)c(N)c2C(=O)Nc2ccccc2OC)cc1,"inconclusive: 7.08 µM [activator, full curve, poor fit]",–
